Data taken from the supplement of paper PMC10441789.
The other results are listed elsewhere or left out. Antibody binding of pooled human sera (four to six donors per pool; dilution not stated) to peptides of the Trypanosoma cruzi antigen TSSA on microarrays. Quantile-normalised fluorescence in arbitrary units, mean of duplicate arrays; higher = more binding. No active / inactive call. The uninfected pools are read here as the healthy donors of the same country. The strongest signals lie near the top of the scale (about 60,000).

Legend:
Test in all cases: antibody binding signal (normalised fluorescence) (arbitrary fluorescence units); higher = stronger serum antibody binding to peptide
[1] = test system: pooled sera of chronic Chagas disease patients, Argentina
Experimental: (§1)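 Microarray of 15-residue peptides over residues 30-55 of Trypanosoma cruzi TSSAII, each with 1 to 10 substitutions at naturally variable positions, probed with one serum pool per country.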

[2] = test system: pooled sera of chronic Chagas disease patients, Bolivia
Experimental: as §1

[3] = test system: pooled sera of chronic Chagas disease patients, Brazil
Experimental: as §1

[4] = test system: pooled sera of chronic Chagas disease patients, Colombia
Experimental: as §1

[5] = test system: pooled sera of chronic Chagas disease patients, Mexico
Experimental: as §1

[6] = test system: pooled sera of chronic Chagas disease patients, USA
Experimental: as §1

[7] = test system: pooled sera of uninfected people, Argentina
Experimental: as §1

[8] = test system: pooled sera of uninfected people, Bolivia
Experimental: as §1

[9] = test system: pooled sera of uninfected people, Brazil
Experimental: as §1

[10] = test system: pooled sera of uninfected people, Mexico
Experimental: as §1

[11] = test system: pooled sera of uninfected people, USA
Experimental: as §1

Sequence	antibody binding signal [1]	antibody binding signal [2]	antibody binding signal [3]	antibody binding signal [4]	antibody binding signal [5]	antibody binding signal [6]	antibody binding signal [7]	antibody binding signal [8]	antibody binding signal [9]	antibody binding signal [10]	antibody binding signal [11]
SSTPPSGTDNKAATG	32800	47900	51100	1200	10100	20000	986	650	1770	293	284
TENKPATGETPSPSG	41900	35100	35000	301	597	28100	310	515	309	1850	2260
SGTEKKAAAGGTPSQ	956	368	930	9640	1220	2370	155	554	1330	142	207
SGTDKKPATGGTPSP	1460	2500	26200	11900	2240	1170	289	543	764	1770	246
PPSGKDKKAAAGGAP	1120	384	712	2450	28500	1560	211	532	120	108	155
GTENKAAAGGAPSPP	41500	1340	3660	7950	6690	4030	224	391	176	147	346
TPPSGTENKPAAGGA	48000	43400	52200	1740	5310	30800	9580	1730	1230	570	1030
GKDKKTAAGGAPSPP	193	239	199	2580	429	526	117	88.6	147	105	105
PPSGTENKTAAGEAP	44800	38900	44700	303	2730	14200	1650	422	345	278	518
TPPSGTDNKPATGET	46100	43100	47400	7410	25300	23600	2350	644	542	2760	3310
DKKPAAGGTPSPPGA	292	186	275	5230	287	1050	166	268	2680	103	188
GTEKKPATGGTPSQP	2320	454	2060	3710	2470	1620	351	1150	1460	534	1420
ISTPPSGTEKKTAAG	37400	3770	29400	412	10300	5280	906	299	149	100	157
PPSGTENKPATGETP	53100	44000	48800	399	8980	32000	6990	1250	714	2200	844
KDKKPAAGGAPSQSG	193	221	193	1220	228	245	114	91.9	128	77.1	94.4
EKKTATGGAPSPSGA	1360	285	669	4220	909	1260	399	1040	127	210	593
TISTPPSGKDKKAAA	21300	433	760	384	44300	621	302	270	124	89	198
NKPAAGETPSQSGAS	247	4080	22900	240	214	1900	405	788	478	369	963
DKKAATGETPSPSGA	1050	693	12500	194	334	10500	712	166	450	174	1090
KEKKTATGETPSPPG	192	233	362	208	235	4160	204	134	106	103	494
GTEKKPATGEAPSPS	43900	46700	48300	3230	5850	38900	904	1720	1990	352	702
PSGKENKTATGGAPS	7730	1920	9010	10400	8410	7970	5670	1990	140	250	209
SGTENKTAAGETPSP	31900	7350	13200	401	313	4890	353	400	174	209	396
TEKKAATGGTPSPSG	1720	546	545	2870	1440	2320	268	157	1100	235	269
KEKKAATGGAPSPPG	417	231	191	485	387	685	213	140	116	69.8	122
DNKPATGEAPSQPGA	44500	47800	47500	309	201	42300	886	541	397	320	167
SGKDNKPAAGEAPSP	1330	860	26400	937	706	13800	404	635	142	351	92.8

Sequence	antibody binding signal [1]	antibody binding signal [2]	antibody binding signal [3]	antibody binding signal [4]	antibody binding signal [5]	antibody binding signal [6]	antibody binding signal [7]	antibody binding signal [8]	antibody binding signal [9]	antibody binding signal [10]	antibody binding signal [11]
KTATGGTPSQSGASS	526	381	1200	522	436	181	571	173	146	368	254
DKKAAAGGAPSQPGA	433	358	2890	5000	515	483	205	134	219	150	155
TDNKTATGGAPSQPG	606	2030	3910	613	422	436	303	372	472	337	219
PSGTDNKPAAGGAPS	30200	8520	44800	4570	1050	7530	278	761	1260	603	296
ENKPATGGTPSQPGA	1060	3210	18600	908	965	2630	462	596	497	697	243
PPSGKDNKAAAGGTP	794	238	1110	1300	3140	2750	272	438	291	88	155
ISTPPSGTENKAAAG	54300	47800	54900	478	7870	27200	3420	699	400	290	842
DKKPAAGEAPSQPGA	9630	13000	43700	153	261	17400	140	197	194	208	147
GTDNKPATGETPSQP	36800	32400	46200	1430	407	28300	275	791	670	1990	188
TPPSGKEKKTATGEA	7810	341	651	464	16200	1080	385	745	130	181	152
PPSGKDNKAATGGTP	429	281	1280	561	2730	2170	291	349	212	89.9	149
KKTAAGETPSPSGAS	214	219	361	296	262	2330	265	201	102	90.3	288
TENKPATGEAPSQSG	46600	48500	51000	314	689	41400	1040	811	343	285	167
PPSGTEKKPATGEAP	47400	50500	47000	787	9750	37300	1770	1070	1150	352	453
KEKKPAAGGAPSQPG	201	368	1570	1800	166	218	122	96.8	170	79.2	330
SGTDKKPAAGGTPSP	748	2820	26900	16200	2430	1680	204	333	2440	2330	478
GKDNKPATGGAPSPP	1060	2120	2450	1130	1760	3040	339	1130	133	178	134
GKENKPATGGAPSPS	4420	1140	10700	6040	8360	13000	909	874	116	186	149
KDKKTAAGGAPSPSG	191	239	238	2580	320	219	124	112	120	101	138
TDKKAATGGAPSQPG	1830	310	8840	1510	3260	1040	461	510	143	152	179
STPPSGKDNKTATGG	42300	4970	9460	1380	35500	3440	337	519	145	114	242
PSGKDNKPATGEAPS	50000	37200	47600	1250	1690	43600	1160	1900	384	380	152
GKDKKPATGEAPSQS	43300	10500	38800	7150	7570	31000	743	257	96.1	79.5	127
KAAAGGAPSPSGASS	234	223	405	5230	1830	346	211	135	106	97.1	186
TDNKTATGEAPSPSG	12900	30300	17800	201	156	22100	166	288	274	89.3	109
GKDNKPAAGGAPSPS	258	194	925	877	610	617	232	448	92.2	127	114
TISTPPSGKENKAAA	17100	3150	7770	773	3570	2820	4110	1280	278	155	1070
